According to patent US20250066451A1 (SWEDISH ORPHAN BIOVITRUM AB PUBL, published 2025):

Legend:
[1] = target: T1, human IL-1R-I (RnD Systems cat. no. 269-1R/CF) (human, UniProt P14778 18-332, limits assumed); experiment: Biacore SPR, hIL-1R-I immobilized, 1:1 model
T1 construct: bought protein; also called hIL-1R-I; hIL-1RI
T1 sequence (looked up): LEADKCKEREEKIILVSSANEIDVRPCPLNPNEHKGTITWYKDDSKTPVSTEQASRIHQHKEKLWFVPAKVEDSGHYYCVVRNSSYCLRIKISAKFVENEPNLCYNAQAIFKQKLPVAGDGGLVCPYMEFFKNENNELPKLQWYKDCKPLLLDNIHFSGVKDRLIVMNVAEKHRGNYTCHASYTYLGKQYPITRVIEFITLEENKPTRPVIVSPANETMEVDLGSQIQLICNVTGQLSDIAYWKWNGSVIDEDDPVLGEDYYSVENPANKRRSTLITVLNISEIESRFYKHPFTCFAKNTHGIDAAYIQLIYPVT
Text: One flow cell surface on the chip was activated and deactivated for use as blank during analyte injections.

IL-1R-I on TF-1 cells = target: T2, IL-1R-I on TF-1 cells (UniProt P14778 18-569, limits assumed); experiment: cell-based or functional assay
T2 sequence (looked up): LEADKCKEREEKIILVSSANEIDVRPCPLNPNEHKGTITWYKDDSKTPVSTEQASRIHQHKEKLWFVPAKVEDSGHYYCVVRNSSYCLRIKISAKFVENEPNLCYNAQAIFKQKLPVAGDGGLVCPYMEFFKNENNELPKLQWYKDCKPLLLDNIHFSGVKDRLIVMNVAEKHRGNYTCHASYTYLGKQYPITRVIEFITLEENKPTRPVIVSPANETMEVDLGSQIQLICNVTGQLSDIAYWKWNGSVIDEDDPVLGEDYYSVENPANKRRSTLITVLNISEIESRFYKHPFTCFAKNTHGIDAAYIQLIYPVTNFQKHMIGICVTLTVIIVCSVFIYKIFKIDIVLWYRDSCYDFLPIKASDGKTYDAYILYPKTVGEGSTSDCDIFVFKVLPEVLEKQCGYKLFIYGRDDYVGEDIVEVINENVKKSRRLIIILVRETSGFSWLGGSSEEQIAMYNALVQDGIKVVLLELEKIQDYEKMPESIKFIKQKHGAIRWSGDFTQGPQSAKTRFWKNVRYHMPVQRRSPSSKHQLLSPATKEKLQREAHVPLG

Binder | Kd [1] [nM] | koff [1] [s⁻¹] | kon [1] [M⁻¹ s⁻¹] | IC50 (nM), TF-1 cell assay (IL-1R-I on TF-1 cells) [nM]
His6-Z16245 (designed binder) MGSSHHHHHHLQVDAKYAKEVETAYFEIFALPNLTRKQYTAFIRKLLDDPSQSSELLSEAKKLNDSQAPKVD | 1.2 | 0.0031 | 2.7e+06 | 8.2
His6-Z16255 (designed binder) MGSSHHHHHHLQVDAKYAKETEDAYMEIYALPNLTRKQYTAFIRKLLDDPSQSSELLSEAKKLNDSQAPKVD | 1 | 0.0031 | 3e+06 | 8.5
His6-Z16301 (designed binder) MGSSHHHHHHLQVDAKYAKEIEAAQMEIFELPNLTRKQYTAFIRKLLDDPSQSSELLSEAKKLNDSQAPKVD | 0.66 | 0.0021 | 3.1e+06 | 4.5
His6-Z16363 (designed binder) MGSSHHHHHHLQVDAKYAKEVEQAQMEIFRLPNLTRKQYTAFIRKLLDDPSQSSELLSEAKKLNDSQAPKVD | 0.57 | 0.0018 | 3.2e+06 | 8.1
His6-Z16378 (designed binder) MGSSHHHHHHLQVDAKYAKEVESAYFEIFKLPNLTRKQYTAFIRKLLDDPSQSSELLSEAKKLNDSQAPKVD | 0.55 | 0.0036 | 6.6e+06 | 32.7
His6-Z17274 (designed binder) MGSSHHHHHHLQVDAKYAKEIEVAYMEIYHLPNLTRKQYTAFIRKLLDDPSQSSELLSEAKKLNDSQAPKVD | 0.22 | 0.0024 | 1.1e+07 | 4.6
His6-Z17280 (designed binder) MGSSHHHHHHLQVDAKYAKEVEQAYWEIYALPNLTRKQYTAFIRKLLDDPSQSSELLSEAKKLNDSQAPKVD | 2.2 | 0.0053 | 2.4e+06 | 5.4

Continued by falling Kd [1], values first:

Kd [1] [nM] | koff [1] [s⁻¹] | kon [1] [M⁻¹ s⁻¹] | IC50 (nM), TF-1 cell assay (IL-1R-I on TF-1 cells) [nM] | Binder
2.2 | 0.0056 | 2.5e+06 | 24.2 | His6-Z16219 (designed binder) MGSSHHHHHHLQVDAKYAKEIEHAQLEIFSLPNLTRKQYTAFIRKLLDDPSQSSELLSEAKKLNDSQAPKVD
1.4 | 0.005 | 3.6e+06 | 20.1 | His6-Z16681 (designed binder) MGSSHHHHHHLQVDAKYAKEVEYAYYEIFKLPNLTRKQYTAFIRKLLDDPSQSSELLSEAKKLNDSQAPKVD
0.54 | 0.0011 | 2.1e+06 | 3.1 | His6-Z16377 (designed binder) MGSSHHHHHHLQVDAKYAKETERAQMEIFYLPNLTRKQYTAFIRKLLDDPSQSSELLSEAKKLNDSQAPKVD
0.52 | 0.0016 | 3e+06 | 3.9 | His6-Z16341 (designed binder) MGSSHHHHHHLQVDAKYAKELEAAQMEIFALPNLTRRQYTAFIRKLLDDPSQSSELLSEAKKLNDSQAPKVD
0.38 | 0.005 | 1.3e+07 | 13.2 | His6-Z17292 (designed binder) MGSSHHHHHHLQVDAKYAKEVEYAYFEIYSLPNLTRKQYTAFIRKLLDDPSQSSELLSEAKKLNDSQAPKVD
0.15 | 0.00067 | 4.4e+06 | < 0.5 | His6-Z18557 (designed binder) MGSSHHHHHHLQVDAKYAKEIEAVQMEIFYLPNLTRKQYTAFIRKLFDDPSQSSELLSEAKKLNDSQAPKVD
